Measurements published in article PMC6919601, “Identification of Plasmodium dipeptidyl aminopeptidase allosteric inhibitors by high throughput screening” (PLoS ONE, 2019).
Out of some 110,000 compounds screened, about 230 (0.21%) showed an effect of 50% or more. This is one part of the list.

What follows are compounds tested against DPAP1 (Plasmodium falciparum, UniProt Q8IIJ9) (assay: primary screen, percent inhibition; read by cleavage of a fluorogenic dipeptide substrate; higher = more effect of the substance).
Set-up: species or system P. falciparum D10 trophozoite lysates; single well
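Further: 30 min substrate incubation versus DMSO and 10 µM JCP410 controls.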

Chain of DPAP1 (Q8IIJ9 whole entry, looked up): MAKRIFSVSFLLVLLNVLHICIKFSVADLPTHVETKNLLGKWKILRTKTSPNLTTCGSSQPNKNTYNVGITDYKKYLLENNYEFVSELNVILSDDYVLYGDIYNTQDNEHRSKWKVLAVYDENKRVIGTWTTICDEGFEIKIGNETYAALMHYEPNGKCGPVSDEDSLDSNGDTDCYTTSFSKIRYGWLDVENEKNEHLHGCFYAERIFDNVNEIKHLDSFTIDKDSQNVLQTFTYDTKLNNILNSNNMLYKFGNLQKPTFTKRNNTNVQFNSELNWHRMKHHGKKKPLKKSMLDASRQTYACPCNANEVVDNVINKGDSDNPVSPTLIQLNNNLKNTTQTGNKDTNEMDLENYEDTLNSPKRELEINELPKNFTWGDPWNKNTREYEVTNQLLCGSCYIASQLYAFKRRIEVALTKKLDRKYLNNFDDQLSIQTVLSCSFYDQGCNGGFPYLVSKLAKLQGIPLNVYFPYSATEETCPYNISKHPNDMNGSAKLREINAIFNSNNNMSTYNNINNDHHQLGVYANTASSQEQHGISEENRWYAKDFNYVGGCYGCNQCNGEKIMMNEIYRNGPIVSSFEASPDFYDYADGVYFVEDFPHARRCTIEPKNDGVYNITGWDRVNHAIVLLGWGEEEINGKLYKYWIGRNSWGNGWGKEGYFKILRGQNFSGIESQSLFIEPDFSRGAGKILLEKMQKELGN

| SMILES | % Inhibition @ 10 uM |
| --- | --- |
| N#CCNC(=O)[C@H](CSCc1ccccc1)NC(=O)c1ccc(C(=O)c2ccccc2)cc1 | -3.49% |
| Cc1ccc(-n2nnnc2Cc2cc3c(cc2Br)OCO3)cc1 | -0.92% |
| CC(=O)c1sc(Nc2cccc(C(F)(F)F)c2)nc1C | 1.51% |
| COc1cc(C2C3=C(O)CCCC3=NC(C)=C2C(=O)OCCOc2ccccc2)cc(OC)c1OC (stereo not shown) | -2.6% |
| CCc1nnc(NC(=O)C2=CCN(S(=O)(=O)c3ccc(F)cc3)CC2)s1 | 1.8% |
| Cc1cccc(NC(=O)c2ccc3c(Cl)c4c(nc3c2)CCCC4)n1 | 1.66% |
| COc1cc(NC(=O)NC23CC4CC(CC(C4)C2)C3)c(OC)cc1Cl | -4.01% |
| CCn1cc(CCCC(=O)O)c2ccccc21 | 6.3% |
| COc1ccccc1/C=C/C(=O)Nc1cc2c(ccc3ccccc32)oc1=O | 7.49% |
| O=C1CC(c2ccco2)CC(=O)C1=CNc1ccc(Cl)cc1C(=O)c1ccccc1 (stereo not shown) | -4.49% |
| CCN(CC)CCNS(=O)(=O)c1cccc2nsnc12 | 1.42% |
| O=C(Nc1c(C(=O)c2cccs2)oc2ccccc12)c1cccs1 | 5.84% |
| CCN(CC)S(=O)(=O)c1cccc(C(=O)Nc2ccc(S(=O)(=O)N3CCOCC3)cc2)c1 | -7.62% |
| Cc1nc2c(-c3ccccc3)cnn2c(N)c1-c1ccccc1 | 0.913% |
| CC1(C)CC(=O)C2=C(C1)c1c(ccc3ccccc13)NC2c1ccco1 (stereo not shown) | 5.45% |
| Cc1cs/c(=N/C(=O)c2ccccc2)n1-c1ccc(Cl)cc1 | 0.35% |
| COc1ccc(-n2nc3cc(C)c(NC(=O)COc4ccccc4)cc3n2)cc1 | -2.65% |
| CC(C)C(NS(=O)(=O)c1cccs1)C(=O)NCc1ccccc1Cl (stereo not shown) | -4.07% |
| Cc1ccc(C2C(C#N)=C(N)SC3=C2C(=O)CCC3)o1 (stereo not shown) | 2.01% |
| CC1CCCCN1c1ncnc2onc(-c3ccc(Cl)cc3)c12 (stereo not shown) | 4.28% |
| N#Cc1cc(C(=O)Nc2ccccc2)n2ccccc12 | -1.08% |
| Cc1cc(CN2CCOCC2)c(O)c(CN2CCOCC2)c1 | -2.44% |
| CCOc1ccc(N(CC(=O)Nc2ccccc2Br)S(C)(=O)=O)cc1 | -1.95% |
| c1cnc(N2CCN(Cc3ccco3)CC2)nc1 | -8.13% |
| O=C(O)CC(c1cccs1)N1Cc2ccccc2C1=O (stereo not shown) | -1.03% |

| SMILES | % Inhibition @ 10 uM |
| --- | --- |
| CCOCC(=O)Nc1c(C(=O)N2CCN(c3ncccn3)CC2)oc2ccccc12 | -3.11% |
| CC1=C(CCN(C)C2CCN(C)CC2)C(C)(C)CCC1 | 2.1% |
| COc1cccc(Nc2nc(-c3ccccc3)cs2)c1 | -0.76% |
| O=C(NCCc1ccccc1)C1CCC(CNc2c(N3CCCCC3)c(=O)c2=O)CC1 (stereo not shown) | 1.02% |
| COC(=O)Cn1c(=N)sc2ccccc21 | 1.9% |
| O=C1CC(N2CCN(Cc3ccc4c(c3)OCO4)CC2)C(=O)N1c1ccccc1Cl (stereo not shown) | 0.35% |
| CCn1c(C(=O)NCc2cccs2)cc2sc(Cl)cc21 | -8.58% |
| COc1cc(OC)c(/C=C2/SC(=O)N(CC(=O)N3CCN(c4ccccc4)CC3)C2=O)c(OC)c1 | 0.795% |
| COc1ccc(O)c(C2NC(C(=O)O)Cc3c2[nH]c2ccccc32)c1 (stereo not shown) | -0.254% |
| Cc1ccc2c(c1)-c1onc(C(=O)N(Cc3ccco3)CC3CCCO3)c1CO2 (stereo not shown) | -3.47% |
| CCCCOc1ccc(/C=c2\sc3nc(-c4cccnc4)nn3c2=O)cc1 | 0.487% |
| COCCCNC(=O)Cn1c(=S)[nH]c2c([nH]c3ccc(OC)cc32)c1=O | -0.495% |
| CC(C)(C)OC(=O)N(CC(=O)CNC(=O)[C@H](Cc1ccc2ccccc2c1)NC(=O)OCc1ccccc1)Cc1ccccc1 | -9.15% |
| CC1(C)CC(=O)c2c(nn(-c3ccccc3)c2-c2cccnc2)C1 | 6.15% |
| COc1ccc2c(Sc3ccccc3)c(C(=O)NCc3ccccn3)[nH]c2c1 | -6.3% |
| O=C(O)CSc1ccc(Oc2ccc(SCC(=O)O)cc2)cc1 | 4.82% |
| CCCCOc1ccc(CN2CCC(O)CC2)cc1 | -5.42% |
| CC(C)CNC(=O)c1cccc(NC(=O)CN2C(=O)c3ccccc3C2=O)c1 | -3.95% |
| Cc1ccc2nc(N(CCCN(C)C)C(=O)C3COc4ccccc4O3)sc2c1 (stereo not shown) | 2.25% |
| Cc1ccc2c(c1)-c1onc(C(=O)N(CC(C)C)CC(C)C)c1CO2 | -3.47% |
| Cn1ncc2c(NCCCN3CCOCC3)ncnc21 | -1.47% |
| COc1ccc(-c2cc(C(F)(F)F)n3ncc(C(=O)Nc4cccnc4Cl)c3n2)cc1OC | -4.84% |
| CCN(CC)CCCNC(=O)c1ccc2nc(N3CCOCC3)sc2c1 | 2.65% |
| CCn1c2ccccc2n2c(SCc3nc4ccccc4[nH]3)nnc12 | -5.38% |
| O=C1S/C(=C\c2ccc3c(c2)OCO3)C(=O)N1Cc1ccccc1F | -9.45% |

| SMILES | % Inhibition @ 10 uM |
| --- | --- |
| COc1cc(C2C3=C(O)c4ccccc4C3=Nc3nc(N)nc(O)c32)ccc1O (stereo not shown) | -5.4% |
| O=C1OC2(CCCC2)OC(=O)C1=Cc1ccc(-c2cccc(C(F)(F)F)c2)o1 | -4.51% |
| CCc1nnc(NC(=O)C(=O)c2cc(C)n(-c3cccc(C)c3)c2C)s1 | 0.655% |
| COc1ccc(CC/N=C(\C)C2=C(O)CC(C)(C)CC2=O)cc1OC | 1.82% |
| Cc1cccc(NC(=O)CN(Cc2ccc(Cl)cc2)S(=O)(=O)c2ccccc2)c1 | -3.49% |
| CN1CCC(N(C)Cc2ccccc2Cl)CC1 | 3.1% |
| Cc1ccc(CNC(=O)c2cc(=O)c3ccc(C)cc3o2)cc1 | -1.47% |
| CN(c1cccc(NC(=O)CN(c2ccc(F)cc2)S(C)(=O)=O)c1)S(C)(=O)=O | 0.381% |
| Cc1cc(C)n(Cc2ccc3c(c2)OCO3)c(=O)c1C#N | 4.33% |
| O=C(O)C1CC=CCC1C(=O)N1CCN(c2ccc(F)cc2)CC1 (stereo not shown) | 2.42% |
| COc1ccc(CN2CCN(c3ccc(C(C)=O)cc3)CC2)c(C)c1C | 2.41% |
| Cc1c(-c2ccccc2)cn2ccn3c(C)ccc3c12 | 4.22% |
| Cc1ccc(C2=CC(c3cccc(Cl)c3)n3nc(CCCO)nc3N2)cc1 (stereo not shown) | -1.98% |
| COc1cc(OC)c(OC)cc1/C=C1\CN(C(C)C)C/C(=C\c2cc(OC)c(OC)cc2OC)C1=O | -2.95% |
| O=C(Nc1ccccc1O)c1cccc(C(=O)Nc2ccccc2O)c1 | -0.0217% |
| COCCCNC(=O)c1ccc(CS(=O)(=O)Cc2ccc(C)cc2)o1 | 3.79% |
| COc1ccc2c(c1)c1nc(SCC(=O)c3ccccc3)n(CCO)c(=O)c1n2C | 26.7% |
| Cc1nn(CC(=O)O)c(=O)c2ccccc12 | 39.5% |
| COc1cccc(CNCCO)c1OCc1ccc(Cl)cc1 | 3.63% |
| CS(=O)(=O)C1=NSC2=NC(=O)/C(=C\c3ccc(Cl)cc3)C(=N)N21 | -3.39% |
| Cc1ccc(C)c(Cn2c(C)c(CNCCc3cccs3)c(C(=O)O)c2C)c1 | 7.46% |
| O=C(NCc1ccccc1)c1cccnn1 | 2.77% |
| O=C(CSCc1cnn(-c2ccccc2)c1-n1cccc1)NCc1cccnc1 | 5.42% |
| CNC(=S)NCCc1c(C)[nH]c2ccc(OC)cc12 | -5.79% |
| O=C(O)C1CCN(S(=O)(=O)c2ccccc2C(F)(F)F)CC1 | 0.401% |

| SMILES | % Inhibition @ 10 uM |
| --- | --- |
| CCCS(=O)(=O)N1CCC(C(=O)NCCC(C)C)CC1 | 3.24% |
| N#Cc1c(N)n(-c2cccc(O)c2)c2nc3ccccc3nc12 | -2.18% |
| COc1ccc2[nH]cc(CCNS(C)(=O)=O)c2c1 | -5.46% |
| COc1cccc(C(=O)N2CCN(Cc3ccccc3)CC2)c1 | -1.38% |
| N#Cc1c(NC(=O)/C=C/c2ccccc2)sc2c1CCCC2 | -0.833% |
| O=C(NCCc1cccs1)C1CCCN(S(=O)(=O)N2CCC3(CC2)OCCO3)C1 (stereo not shown) | -2.56% |
| CCOc1cccc(C(=O)C2=C(O)C(=O)N(Cc3ccncc3)C2c2cccc(OC)c2)c1 (stereo not shown) | 0.83% |
| CCOc1ccc(N(C(C)C(=O)N2CCCC2)S(C)(=O)=O)cc1 (stereo not shown) | -3.39% |
| O=[N+]([O-])c1ccc(-c2cc(-c3ccc(Br)cc3)nc(O)n2)cc1 | -5.28% |
| Cc1ccc(NC2=NC(=O)C(CC(=O)Nc3cccc(C)c3)S2)cc1 (stereo not shown) | 9.88% |
| Cc1cc(C)c2c(N)c(C(=O)c3ccc(Br)cc3)sc2n1 | 7.37% |
| O=C(O)c1ccc(CSc2nc3ccccc3o2)cc1 | -2.27% |
| CCOC(=O)c1oc2ccc(CNC3CCCCC3)c(Cl)c2c1C | 4.16% |
| O=C(CCCn1nc(-c2ccccc2)c2cc(Cl)ccc21)NCCCN1CCOCC1 | -8.58% |
| COc1ccc(OC)c(CCC(=O)O)c1 | -6.2% |
| COc1cc(N2CCCC2)c(OC)cc1/C=C1\NC(=O)N(CC(=O)Nc2ccc(C)cc2)C1=O | -2.22% |
| CCOc1cc(CNCc2c(C(=O)O)n(CC)c3cc(OC)ccc23)cc(OCC)c1OCC | 3.38% |
| Cc1cc(-c2ccc(C)c(S(=O)(=O)NCCC(C)C)c2)on1 | 1.32% |
| COc1ccc(/C=C2/NC(=O)NC2=O)c(OC)c1C | 5.37% |
| Cc1nc(CNS(=O)(=O)c2ccc3c(c2)CCCC3)cs1 | -2.45% |
| Cc1cccc(Cn2c(Br)nc3c2c(=O)[nH]c(=O)n3C)c1 | 2.75% |
| COc1cc(C2C(C(=O)c3cc4ccccc4o3)=C(O)C(=O)N2Cc2ccco2)ccc1O (stereo not shown) | -1.96% |
| O=C(c1ccccc1NCc1ccccc1O)N1CCOCC1 | 0.661% |
| Cc1c(CN2CCCCC2CO)c(=O)n(-c2ccccc2)n1C (stereo not shown) | 2.1% |
| O=C(c1ccco1)N1CCN(C(=O)c2nc(-c3cccnc3)no2)CC1 | -2.58% |
